Source: PubChem BioAssay AID651820 (National Center for Advancing Translational Sciences (NCATS), 2012)
The whole screen tested about 340,000 compounds, of which about 12,000 (3.5%) were called active. This list was built around the results that the source calls inconclusive (neither active nor inactive); the mix of calls is not that of the screen. The call rests on the fitted dose curve; in most records, active means well fitted inhibition curve with a large enough effect; inconclusive means small, poorly fitted or top-dose-only effect, or another doubt; inactive means no such curve, though single readings can be large or run the other way. Potencies of inconclusive entries are left out as doubtful fits.

test: qHTS Assay for Inhibitors of Hepatitis C Virus (HCV); conditions: Huh7.5.1 HCVcc-Cre (HCVcc is cell-culture hepatitis C virus) infection, luciferase reporter, 44 h; series mostly up to 41.8 µM
Method in brief: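 Whole-lifecycle infectious HCVcc-Cre system; cells 1,000/well, compound then virus (~0.5 moi) added 4 h after plating, 44 h culture. Luciferase read 15 sec following 15 min substrate incubation, room temp.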
Potency means the concentration at half of the fitted maximal effect; tags describe the fitted curve by direction and shape.

Compound	Potency
Cn1nc(C(F)(F)F)c2cc(NC(=O)OCc3ccc(C(C)(C)C)cc3)sc21	inconclusive [inhibitor, full curve]
COC(=O)CSc1nnc(-c2ccccc2OC)o1	inactive
CCCn1nc(C(=O)Nc2ccc3c(c2)OCO3)c2ccccc2c1=O	inconclusive [inhibitor, partial curve]
CCN(C(=O)CN1CCCCC1)c1c(N)n(Cc2ccccc2)c(=O)[nH]c1=O	inconclusive [inhibitor, partial curve]
COCCNC(=S)N1CCN(Cc2ccc3c(c2)OCO3)CC1	inactive
N#Cc1c(N)nc2c(c1-c1ccncc1)CCCC2	inconclusive [inhibitor, single point]
Oc1c(Cl)cc(Cl)cc1/C=C/c1ccc2cccc(O)c2n1	inconclusive [inhibitor, partial curve]
COc1ccc(-c2noc(-c3ccc(C)cc3)n2)cc1	inconclusive [inhibitor, partial curve]
CCc1ccc(NC(=O)C2CCCN(S(=O)(=O)c3ccc4c(c3)CCCN4C(C)=O)C2)cc1 (stereo unspecified)	inconclusive [inhibitor, single point]
CSc1ncccc1C(=O)Nc1cccc(S(=O)(=O)N2CCCCCC2)c1	inconclusive [inhibitor, partial curve]
CCCN(CC1CC1)C(=O)COC(=O)c1[nH]c(C)c(C(=O)OCC)c1C	inconclusive [inhibitor, partial curve]
COC(=O)c1ccc(CSCc2ccc(C(=O)OC)o2)o1	inactive
C=CCOc1c(CNc2cccc(C(=O)O)c2)cccc1OC	inactive
CC1CCCN(S(=O)(=O)c2ccc(NC(=O)C3CC(=O)N(c4ccccc4)C3)cc2)C1 (stereo unspecified)	inconclusive [inhibitor, partial curve]
CN(C)C=Nc1ncc2c([nH]c3ccccc32)c1C#N	inconclusive [inhibitor, partial curve, poor fit]
O=C1c2ccccc2C(Nc2ccc3c(c2)OCCO3)N1Cc1ccccc1 (stereo unspecified)	inconclusive [inhibitor, partial curve]
Cc1ccc2c(CN3CCCc4ccccc43)cc(=O)oc2c1C	inconclusive [inhibitor, single point]
Cc1ccc(O)c(CNc2cnc3ccccc3c2)c1	inconclusive [inhibitor, single point]
CCC(CC)=N/N=C/c1c(O)n(CC)c2cc(C3=NNC(=O)CC3)ccc12	inconclusive [inhibitor, single point]
COc1ccc(-c2nnc(SCc3ncc(-c4ccccc4)o3)o2)cc1	inactive
CCCn1c(=O)c(C(=O)Nc2cccc(C)c2)c(O)c2ccccc21	inactive
CCCC(c1nnnn1CCc1ccccc1)N1CCN(C(=O)c2ccco2)CC1 (stereo unspecified)	inconclusive [inhibitor, single point]
CCOC(=O)c1ccc(N2CCN(c3ccc(F)cc3)CC2)c(NC(=O)Nc2cccc(OC)c2)c1	inconclusive [inhibitor, partial curve]

Compound	Potency
COc1cccc(/C=N/Nc2nn3cnnc3c3ccccc23)c1O	inactive
COc1ccc(NC(=O)NNC(=O)c2ccc(-c3ccccc3)cc2)cc1	inconclusive [inhibitor, single point]
Cc1ccc(-c2csc3ncnc(Oc4ccc5c(C)cc(=O)oc5c4)c23)cc1	inconclusive [inhibitor, partial curve]
O=C1C2CC=CCC2C(=O)N1c1ccc(NCCc2ccc(O)cc2)c([N+](=O)[O-])c1 (stereo unspecified)	active: 12.6 µM
CCCOC(=O)Oc1ccc2c(=O)c(Oc3cc(C)cc(C)c3)coc2c1	inconclusive [inhibitor, partial curve]
O=C(CN1C(=O)c2ccccc2C1=O)NCCc1c[nH]c2ccc(Cl)cc12	inconclusive [inhibitor, single point]
COc1ccc(CC(=O)NNC(=S)Nc2ccccc2)cc1Cl	inactive
COc1cccc(CN(C)C(=O)c2cc(COc3ccc4ncccc4c3)on2)c1	active: 5.62 µM
Cc1ccc(C2(c3noc(CN4CCOCC4)n3)CCCC2)cc1	inactive
Nc1cc(S(=O)(=O)N2CCCCC2)ccc1Oc1ccc(Cl)cc1	inconclusive [inhibitor, single point]
Cc1cccc(NC(=O)CCC(=O)OCC(=O)c2ccc(Oc3ccc([N+](=O)[O-])cc3)cc2)c1	inactive
CCOc1ccccc1N1CCN(C(=O)c2cc3cc(OC)ccc3[nH]2)CC1	inconclusive [inhibitor, single point]
Cc1ccc(NC(=S)Nc2cccc3ccccc23)cc1	inactive
CCC(Oc1ccccc1)C(=O)Nc1ccc(S(=O)(=O)NCC2CCCO2)cc1 (stereo unspecified)	inconclusive [inhibitor, single point]
Cc1ccc(Cl)cc1NC(=O)c1ccccn1	inconclusive [inhibitor, single point]
OC(COC(c1ccc(Cl)cc1)c1ccc(Cl)cc1)CN1CCN(c2ccccn2)CC1 (stereo unspecified)	active: 8.91 µM
COc1cc(C)c(NC(c2ccccc2)c2ccccc2)cc1OC	inactive
CC(=O)Oc1cc2c(cc1Cl)C1(CC(c3ccccc3Cl)O2)CC(C)(C)NC(=S)N1 (stereo unspecified)	active: 10 µM
CCOc1ccc(NS(=O)(=O)c2ccc(-c3cnc(C4CC4)o3)cc2)cc1	inconclusive [inhibitor, single point]
CN(C)S(=O)(=O)c1cccc(NC(=O)c2cccc(S(=O)(=O)N3CCCCC3)c2)c1	inconclusive [inhibitor, single point]
CCNS(=O)(=O)c1ccc(CCC(=O)NCc2ccc3c(c2)OCO3)cc1	inactive
O=C(Cc1cccs1)NCc1cc(Cl)cc(Cl)c1	inactive
CCCCCC1CCC(C(=O)NNC(=S)NCC)CC1 (stereo unspecified)	inconclusive [inhibitor, single point]
